{"source": "paper PMC9911399", "about": "“Two distinct binding modes provide the RNA-binding protein RbFox with extraordinary sequence specificity”", "binders": {"B1": {"name": "GUAUCCC (DNA:RNA)", "RNA": "GGGAGACCGGAAUUCAGAUUGUCCGUAUCCCUUAAAUCCCGUCGUAGCCACCA", "DNA 1": "CAATCTGAATTCCGGTCTCCC", "DNA 2": "TGGTGGCTACGACGGGATT"}, "B2": {"name": "CACCACG (DNA:RNA)", "RNA": "B1 RNA with G25C, U26A, A27C, U28C, C29A, C31G", "DNA 1": "CAATCTGAATTCCGGTCTCCC", "DNA 2": "TGGTGGCTACGACGGGATT"}, "B3": {"name": "ACUGCGG (DNA:RNA)", "RNA": "B1 RNA with G25A, U26C, A27U, U28G, C30G, C31G", "DNA 1": "CAATCTGAATTCCGGTCTCCC", "DNA 2": "TGGTGGCTACGACGGGATT"}, "B4": {"name": "GCGACCG (DNA:RNA)", "RNA": "B1 RNA with U26C, A27G, U28A, C31G", "DNA 1": "CAATCTGAATTCCGGTCTCCC", "DNA 2": "TGGTGGCTACGACGGGATT"}, "B5": {"name": "GUAGAAA (DNA:RNA)", "RNA": "B1 RNA with U28G, C29A, C30A, C31A", "DNA 1": "CAATCTGAATTCCGGTCTCCC", "DNA 2": "TGGTGGCTACGACGGGATT"}, "B6": {"name": "AUACAUG (DNA:RNA)", "RNA": "B1 RNA with G25A, U28C, C29A, C30U, C31G", "DNA 1": "CAATCTGAATTCCGGTCTCCC", "DNA 2": "TGGTGGCTACGACGGGATT"}, "B7": {"name": "CGCUAAA (DNA:RNA)", "RNA": "B1 RNA with G25C, U26G, A27C, C29A, C30A, C31A", "DNA 1": "CAATCTGAATTCCGGTCTCCC", "DNA 2": "TGGTGGCTACGACGGGATT"}, "B8": {"name": "GACUUAU (DNA:RNA)", "RNA": "B1 RNA with U26A, A27C, C29U, C30A, C31U", "DNA 1": "CAATCTGAATTCCGGTCTCCC", "DNA 2": "TGGTGGCTACGACGGGATT"}, "B9": {"name": "AUCGGAC (DNA:RNA)", "RNA": "B1 RNA with G25A, A27C, U28G, C29G, C30A", "DNA 1": "CAATCTGAATTCCGGTCTCCC", "DNA 2": "TGGTGGCTACGACGGGATT"}, "B10": {"name": "CCCAACU (DNA:RNA)", "RNA": "B1 RNA with G25C, U26C, A27C, U28A, C29A, C31U", "DNA 1": "CAATCTGAATTCCGGTCTCCC", "DNA 2": "TGGTGGCTACGACGGGATT"}, "B11": {"name": "CGGCACG (DNA:RNA)", "RNA": "B1 RNA with G25C, U26G, A27G, U28C, C29A, C31G", "DNA 1": "CAATCTGAATTCCGGTCTCCC", "DNA 2": "TGGTGGCTACGACGGGATT"}, "B12": {"name": "UGCAUCU (DNA:RNA)", "RNA": "B1 RNA with G25U, U26G, A27C, U28A, C29U, C31U", "DNA 1": "CAATCTGAATTCCGGTCTCCC", "DNA 2": "TGGTGGCTACGACGGGATT"}, "B13": {"name": "GGGGCAC (DNA:RNA)", "RNA": "B1 RNA with U26G, A27G, U28G, C30A", "DNA 1": "CAATCTGAATTCCGGTCTCCC", "DNA 2": "TGGTGGCTACGACGGGATT"}, "B14": {"name": "CCAGGCU (DNA:RNA)", "RNA": "B1 RNA with G25C, U26C, U28G, C29G, C31U", "DNA 1": "CAATCTGAATTCCGGTCTCCC", "DNA 2": "TGGTGGCTACGACGGGATT"}, "B15": {"name": "CCGUUUA (DNA:RNA)", "RNA": "B1 RNA with G25C, U26C, A27G, C29U, C30U, C31A", "DNA 1": "CAATCTGAATTCCGGTCTCCC", "DNA 2": "TGGTGGCTACGACGGGATT"}, "B16": {"name": "GUGGAAA (DNA:RNA)", "RNA": "B1 RNA with A27G, U28G, C29A, C30A, C31A", "DNA 1": "CAATCTGAATTCCGGTCTCCC", "DNA 2": "TGGTGGCTACGACGGGATT"}, "B17": {"name": "ACCGCCU (DNA:RNA)", "RNA": "B1 RNA with G25A, U26C, A27C, U28G, C31U", "DNA 1": "CAATCTGAATTCCGGTCTCCC", "DNA 2": "TGGTGGCTACGACGGGATT"}, "B18": {"name": "UUGCCAC (DNA:RNA)", "RNA": "B1 RNA with G25U, A27G, U28C, C30A", "DNA 1": "CAATCTGAATTCCGGTCTCCC", "DNA 2": "TGGTGGCTACGACGGGATT"}, "B19": {"name": "GAACAAC (DNA:RNA)", "RNA": "B1 RNA with U26A, U28C, C29A, C30A", "DNA 1": "CAATCTGAATTCCGGTCTCCC", "DNA 2": "TGGTGGCTACGACGGGATT"}, "B20": {"name": "CUUUUAC (DNA:RNA)", "RNA": "B1 RNA with G25C, A27U, C29U, C30A", "DNA 1": "CAATCTGAATTCCGGTCTCCC", "DNA 2": "TGGTGGCTACGACGGGATT"}}, "note": "Positions count from the first letter of the chain named. Some of the results follow.", "data": [{"molecular_target": "T1, RBFOX1 RRM RbFoxmut (Fox-RRM*) (Homo sapiens, UniProt Q9NWB1 109-208, R118D;E147R;N151S;E152T)", "T1 sequence": "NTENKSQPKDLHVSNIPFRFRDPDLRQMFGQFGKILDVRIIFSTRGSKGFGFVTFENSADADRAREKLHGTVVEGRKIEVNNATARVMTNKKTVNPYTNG", "assay": "EMSA; HiTS-Eq, 1 nM pool, 10 min; buffer printed only for the single-RNA assays: 10 mM Tris pH 7.5, 150 mM NaCl, 3.4 mM EDTA, 0.001% NP-40, 30 C", "conditions": "tags: His6 N-terminal (pET28a); label: 5' 32P", "summary_of_the_method": "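Purified RbFox RRM, wild type or mutant, was incubated for 10 min in 50 µL with 1 nM of a 5′-radiolabelled RNA pool carrying 7 randomized nucleotides, whose flanks were annealed to DNA oligonucleotides, over a series of increasing protein concentrations. Unbound RNA was resolved on 8% native PAGE, cut out, reverse-transcribed, barcoded by PCR and sequenced on an Illumina HiSeq 2500. Relative association constants were derived from changes in read counts for each RNA species versus the control reaction and normalised to the cognate motif.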", "values": [{"binder": "B1", "binding signal": "0.0921 KA relative to UGCAUGU"}, {"binder": "B2", "binding signal": "0.125 KA relative to UGCAUGU"}, {"binder": "B3", "binding signal": "0.0963 KA relative to UGCAUGU"}, {"binder": "B4", "binding signal": "0.111 KA relative to UGCAUGU"}, {"binder": "B5", "binding signal": "0.105 KA relative to UGCAUGU"}, {"binder": "B6", "binding signal": "0.118 KA relative to UGCAUGU"}, {"binder": "B7", "binding signal": "0.0826 KA relative to UGCAUGU"}, {"binder": "B8", "binding signal": "0.124 KA relative to UGCAUGU"}, {"binder": "B9", "binding signal": "0.0703 KA relative to UGCAUGU"}, {"binder": "B10", "binding signal": "0.0528 KA relative to UGCAUGU"}, {"binder": "B11", "binding signal": "0.264 KA relative to UGCAUGU"}, {"binder": "B12", "binding signal": "0.727 KA relative to UGCAUGU"}, {"binder": "B13", "binding signal": "0.0742 KA relative to UGCAUGU"}, {"binder": "B14", "binding signal": "0.0795 KA relative to UGCAUGU"}, {"binder": "B15", "binding signal": "0.0885 KA relative to UGCAUGU"}, {"binder": "B16", "binding signal": "0.112 KA relative to UGCAUGU"}, {"binder": "B17", "binding signal": "0.0816 KA relative to UGCAUGU"}, {"binder": "B18", "binding signal": "0.0642 KA relative to UGCAUGU"}, {"binder": "B19", "binding signal": "0.0447 KA relative to UGCAUGU"}, {"binder": "B20", "binding signal": "0.0922 KA relative to UGCAUGU"}]}]}
